Source: the supplement of paper PMC4604168 (melanoma cell lines)
The list shows a part of the results. Repeats are few or missing, and single values can be far off.

Key:
Assay in all cases: cell count relative to DMSO control; melanoma cells; higher = more viable cells
Conditions in all cases: library dose: standard library concentration; 72 h
[1] = tested on: SkMel28
[2] = tested on: SkMel2
[3] = tested on: SkMel30
[4] = tested on: SkMel5
[5] = tested on: UACC257
[6] = tested on: UACC62
[7] = tested on: WM115
[8] = tested on: WM1716
[9] = tested on: WM1745
[10] = tested on: WM3526
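Note: cells treated in 1,536-well plates, then fixed and DAPI-stained, with nuclei counted from automated high-throughput microscope images.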

Cc1cc(N2CCOCC2)cc2[nH]c(-c3c(NC[C@@H](O)c4cccc(Cl)c4)cc[nH]c3=O)nc12 + COc1cc2c(Oc3ccc4[nH]c(C)cc4c3F)ncnc2cc1OCCCN1CCCC1 [cediranib] (first compound 1 µM, partner dose 2 µM)
cell count [1]: 60.8%
cell count [2]: 74.2%
cell count [3]: 93.4%
cell count [4]: 61.7%
cell count [5]: 96.3%
cell count [6]: 92.5%
cell count [7]: 85%
cell count [8]: 117%
cell count [9]: 49.8%
cell count [10]: 76.1%

O=C(O)c1ccc2c(c1)nc(Nc1cccc(Cl)c1)c1ccncc12 + NCC(=O)Nc1ccc(-n2nc(C(F)(F)F)cc2-c2ccc3c(ccc4ccccc43)c2)cc1 [OSU03012] (first compound 2 µM, partner dose 5 µM)
cell count [1]: 15.3%
cell count [2]: 19.9%
cell count [3]: 29.4%
cell count [4]: 48.6%
cell count [5]: 61.8%
cell count [6]: 57.4%
cell count [7]: 79.6%
cell count [8]: 53.9%
cell count [9]: 78.3%
cell count [10]: 45.8%

Cn1nnc2c(C(N)=O)ncn2c1=O [temozolomide] + CN(C)S(=O)(=O)c1ccc2c(c1)/C(=C/c1cc3c([nH]1)CCCC3)C(=O)N2 [SU6656] (first compound 10 µM, partner dose 2 µM)
cell count [1]: 37.3%
cell count [2]: 133%
cell count [3]: 62.5%
cell count [4]: 70.4%
cell count [5]: 76.6%
cell count [6]: 63.1%
cell count [7]: 33.4%
cell count [8]: 50.4%
cell count [9]: 63.2%
cell count [10]: 76.1%

O=C(O)c1ccc2c(c1)nc(Nc1cccc(Cl)c1)c1ccncc12 + Cn1nnc2c(C(N)=O)ncn2c1=O [temozolomide] (first compound 2 µM, partner dose 10 µM)
cell count [1]: 27.3%
cell count [2]: 69%
cell count [3]: 62.3%
cell count [4]: 67%
cell count [5]: 99.5%
cell count [6]: 48.7%
cell count [7]: 74.7%
cell count [8]: 42.1%
cell count [9]: 62.9%
cell count [10]: 64.8%

O=C(Nc1cc(C(F)(F)F)cc(C(F)(F)F)c1)c1cc(Cl)ccc1O + C#Cc1cccc(Nc2ncnc3cc(OCCOC)c(OCCOC)cc23)c1 [erlotinib] (first compound 0.08 µM, partner dose 4 µM)
cell count [1]: 57.1%
cell count [2]: 98.6%
cell count [3]: 81.3%
cell count [4]: 79.4%
cell count [5]: 88.9%
cell count [6]: 50.2%
cell count [7]: 66.6%
cell count [8]: 107%
cell count [9]: 58.6%
cell count [10]: 75.9%

O=C(O)[C@@H]1[O][Sb](=[O])([O][Sb]2(=[O])[O][C@H]([C@H](O)CO)[C@H](O)[C@H](C(=O)O)[O]2)[O][C@H]([C@H](O)CO)[C@@H]1O (stereo not given in full) [stibogluconate] + CN(C)S(=O)(=O)c1ccc2c(c1)/C(=C/c1cc3c([nH]1)CCCC3)C(=O)N2 [SU6656] (first compound 10 µM, partner dose 2 µM)
cell count [1]: 45.1%
cell count [2]: 84.9%
cell count [3]: 75.9%
cell count [4]: 59.8%
cell count [5]: 60.3%
cell count [6]: 72%
cell count [7]: 43.2%
cell count [8]: 37.8%
cell count [9]: 55.3%
cell count [10]: 65.8%

Cc1cc(N2CCOCC2)cc2[nH]c(-c3c(NC[C@@H](O)c4cccc(Cl)c4)cc[nH]c3=O)nc12 + CCc1ccc(CCOc2ccc(CC3SC(=O)NC3=O)cc2)nc1 [pioglitazone] (first compound 1 µM, partner dose 10 µM)
cell count [1]: 68.9%
cell count [2]: 74%
cell count [3]: 87%
cell count [4]: 76%
cell count [5]: 84.4%
cell count [6]: 110%
cell count [7]: 99.4%
cell count [8]: 94.7%
cell count [9]: 44.8%
cell count [10]: 94%

Cn1nnc2c(C(N)=O)ncn2c1=O [temozolomide] + O=C(Nc1ccccc1)c1cc([N+](=O)[O-])ccc1Cl [GW9662] (first compound 10 µM, partner dose 10 µM)
cell count [1]: 31.9%
cell count [2]: 86.9%
cell count [3]: 69.5%
cell count [4]: 80.8%
cell count [5]: 75.9%
cell count [6]: 70.1%
cell count [7]: 60%
cell count [8]: 57.4%
cell count [9]: 69.1%
cell count [10]: 82.7%

O=C(O)[C@@H]1[O][Sb](=[O])([O][Sb]2(=[O])[O][C@H]([C@H](O)CO)[C@H](O)[C@H](C(=O)O)[O]2)[O][C@H]([C@H](O)CO)[C@@H]1O (stereo not given in full) [stibogluconate] + O=C(CCCCCCC(=O)Nc1ccccc1)NO [vorinostat] (first compound 10 µM, partner dose 0.4 µM)
cell count [1]: 36.7%
cell count [2]: 58.5%
cell count [3]: 77.8%
cell count [4]: 68.5%
cell count [5]: 62.9%
cell count [6]: 62.4%
cell count [7]: 62.2%
cell count [8]: 77%
cell count [9]: 94.1%
cell count [10]: 67.9%

O=C(O)c1ccc2c(c1)nc(Nc1cccc(Cl)c1)c1ccncc12 + Nc1nc(F)nc2c1ncn2[C@@H]1O[C@H](CO)[C@@H](O)[C@@H]1O [fludarabine] (first compound 2 µM, partner dose 1 µM)
cell count [1]: 1.04%
cell count [2]: 0.166%
cell count [3]: 11.6%
cell count [4]: 22.5%
cell count [5]: 27.3%
cell count [6]: 64.5%
cell count [7]: 75.6%
cell count [8]: 90.2%
cell count [9]: 86.3%
cell count [10]: 14.1%

O=C(Nc1cc(C(F)(F)F)cc(C(F)(F)F)c1)c1cc(Cl)ccc1O + CS(=O)(=O)c1ccc(C(=O)Nc2ccc(Cl)c(-c3ccccn3)c2)c(Cl)c1 [vismodegib] (first compound 0.08 µM, partner dose 5 µM)
cell count [1]: 98%
cell count [2]: 106%
cell count [3]: 89.8%
cell count [4]: 101%
cell count [5]: 116%
cell count [6]: 72.1%
cell count [7]: 113%
cell count [8]: 120%
cell count [9]: 124%
cell count [10]: 94.9%

O=C(Nc1cc(C(F)(F)F)cc(C(F)(F)F)c1)c1cc(Cl)ccc1O + Cn1c(Nc2ccc(C(F)(F)F)cc2)nc2cc(Oc3ccnc(-c4ncc(C(F)(F)F)[nH]4)c3)ccc21 [CHIR265] (first compound 0.08 µM, partner dose 0.4 µM)
cell count [1]: 43.3%
cell count [2]: 47.4%
cell count [3]: 75.1%
cell count [4]: 37.6%
cell count [5]: 83.1%
cell count [6]: 46.6%
cell count [7]: 42.3%
cell count [8]: 66.2%
cell count [9]: 58.8%
cell count [10]: 48.5%

O=C(Nc1cc(C(F)(F)F)cc(C(F)(F)F)c1)c1cc(Cl)ccc1O + O=c1[nH]nc(Sc2ncc([N+](=O)[O-])s2)n1-c1ccc2c(c1)OCCO2 [BI78D3] (first compound 0.08 µM, partner dose 1 µM)
cell count [1]: 94.8%
cell count [2]: 91.5%
cell count [3]: 80.7%
cell count [4]: 87.3%
cell count [5]: 100%
cell count [6]: 73.1%
cell count [7]: 86.4%
cell count [8]: 93.8%
cell count [9]: 78.7%
cell count [10]: 88.3%

O=C(Nc1cc(C(F)(F)F)cc(C(F)(F)F)c1)c1cc(Cl)ccc1O + Nc1ccn([C@@H]2O[C@H](CO)[C@@H](O)C2(F)F)c(=O)n1 [gemcitabine] (first compound 0.08 µM, partner dose 0.002 µM)
cell count [1]: 114%
cell count [2]: 90%
cell count [3]: 100%
cell count [4]: 107%
cell count [5]: 100%
cell count [6]: 95.7%
cell count [7]: 71.5%
cell count [8]: 66.2%
cell count [9]: 52%
cell count [10]: 100%

Cn1nnc2c(C(N)=O)ncn2c1=O [temozolomide] + COc1cc2ncnc(Nc3ccc(Oc4ccccc4)cc3)c2cc1OC [SrcI1] (first compound 10 µM, partner dose 10 µM)
cell count [1]: 34.5%
cell count [2]: 105%
cell count [3]: 83.4%
cell count [4]: 70.2%
cell count [5]: 87.7%
cell count [6]: 51.8%
cell count [7]: 62.5%
cell count [8]: 57.3%
cell count [9]: 53.8%
cell count [10]: 60.4%

O=C(Nc1cc(C(F)(F)F)cc(C(F)(F)F)c1)c1cc(Cl)ccc1O + CCN(CC)CCNC(=O)c1c(C)[nH]c(/C=C2\C(=O)Nc3ccc(F)cc32)c1C [sunitinib] (first compound 0.08 µM, partner dose 2 µM)
cell count [1]: 70.2%
cell count [2]: 68.6%
cell count [3]: 65%
cell count [4]: 55.7%
cell count [5]: 82.3%
cell count [6]: 67.8%
cell count [7]: 51.7%
cell count [8]: 101%
cell count [9]: 47.7%
cell count [10]: 69.9%

O=C(O)[C@@H]1[O][Sb](=[O])([O][Sb]2(=[O])[O][C@H]([C@H](O)CO)[C@H](O)[C@H](C(=O)O)[O]2)[O][C@H]([C@H](O)CO)[C@@H]1O (stereo not given in full) [stibogluconate] + O=C(O)c1ccc(-c2c[nH]c3ncc(-c4ccccc4)cc23)cc1C1CCCC1 [GSK650394] (first compound 10 µM, partner dose 0.8 µM)
cell count [1]: 71.1%
cell count [2]: 70.8%
cell count [3]: 98.1%
cell count [4]: 96.1%
cell count [5]: 86.2%
cell count [6]: 98.5%
cell count [7]: 86.3%
cell count [8]: 86.6%
cell count [9]: 145%
cell count [10]: 101%

O=C(Nc1ccccc1)c1cc([N+](=O)[O-])ccc1Cl + COC(=O)c1sccc1S(=O)(=O)Nc1ccc(Nc2ccccc2)cc1OC [GSK0660] (first compound 10 µM, partner dose 5 µM)
cell count [1]: 69.9%
cell count [2]: 87.4%
cell count [3]: 91.3%
cell count [4]: 62.7%
cell count [5]: 81.7%
cell count [6]: 69.1%
cell count [7]: 80.4%
cell count [8]: 95.4%
cell count [9]: 73.7%
cell count [10]: 80.5%

O=C(O)c1ccc2c(c1)nc(Nc1cccc(Cl)c1)c1ccncc12 + CC(C)(C)c1cnc(CSc2cnc(NC(=O)C3CCNCC3)s2)o1 [SNS-032] (first compound 2 µM, partner dose 0.05 µM)
cell count [1]: 41.3%
cell count [2]: 62.9%
cell count [3]: 66.9%
cell count [4]: 61.5%
cell count [5]: 87.8%
cell count [6]: 55.6%
cell count [7]: 75.9%
cell count [8]: 54.8%
cell count [9]: 30.7%
cell count [10]: 73.1%

O=C(O)c1ccc2c(c1)nc(Nc1cccc(Cl)c1)c1ccncc12 + COCC[n+]1c2c(n(Cc3cnccn3)c1C)C(=O)c1ccccc1C2=O [YM155] (first compound 2 µM, partner dose 0.002 µM)
cell count [1]: 48.1%
cell count [2]: 35.3%
cell count [3]: 82%
cell count [4]: 40.5%
cell count [5]: 30.3%
cell count [6]: 73.5%
cell count [7]: 71.4%
cell count [8]: 77.6%
cell count [9]: 76.4%
cell count [10]: 50.7%

O=C(O)[C@@H]1[O][Sb](=[O])([O][Sb]2(=[O])[O][C@H]([C@H](O)CO)[C@H](O)[C@H](C(=O)O)[O]2)[O][C@H]([C@H](O)CO)[C@@H]1O (stereo not given in full) [stibogluconate] + Cc1cc(N2CCOCC2)cc2[nH]c(-c3c(NC[C@@H](O)c4cccc(Cl)c4)cc[nH]c3=O)nc12 [BMS536924] (first compound 10 µM, partner dose 1 µM)
cell count [1]: 67.8%
cell count [2]: 94.7%
cell count [3]: 92.4%
cell count [4]: 70.2%
cell count [5]: 105%
cell count [6]: 97.1%
cell count [7]: 84.2%
cell count [8]: 130%
cell count [9]: 56.8%
cell count [10]: 80.8%
